# According to PubChem BioAssay AID1240 (Sanford-Burnham Center for Chemical Genomics, 2008):
# Hit rate of the full screen: of about 50,000 compounds, about 800 (1.6%) showed an effect of 50% or more. The list shows a part of the results.
# Biological target: Bcl-2-like protein 10 (Homo sapiens) (UniProt Q9HD36)
# Experiment: Phenotype converters, Bcl-B/TR3 peptide binding displacement, primary biochemical FP (AID 1240);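 further: 0% = Bcl-B with tracer peptide and DMSO and 100% = tracer peptide lacking Bcl-B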
# Conditions: GST-Bcl-B / FITC-TR3 peptide fluorescence polarization; stronger effect = higher value; compound at 3.75 mg/L
# UniProt Q9HD36, sequence (Q9HD36 whole entry, looked up): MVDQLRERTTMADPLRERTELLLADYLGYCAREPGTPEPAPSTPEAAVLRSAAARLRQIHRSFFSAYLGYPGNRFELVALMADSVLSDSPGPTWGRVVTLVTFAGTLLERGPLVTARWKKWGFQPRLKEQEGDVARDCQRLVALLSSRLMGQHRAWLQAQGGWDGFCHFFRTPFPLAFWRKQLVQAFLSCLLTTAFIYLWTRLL
row,Structure (SMILES),displacement
1,CC1=C(C(=O)OCCc2ccccc2)C(c2ccccc2[N+](=O)[O-])CC(=O)N1 (stereo not drawn),-0.5%
2,COc1ccc(-c2cc(C(=O)NN)c3cc(Br)ccc3n2)cc1,25.3%
3,O=c1oc(-c2cccs2)nc2sc3c(c12)CCCCC3,15%
4,O=C(NCc1ccc(Cl)cc1)C(=O)Nc1ccc(F)cc1,-0.1%
5,CC(/C=C/c1ccc2c(c1)OCO2)=N\NC(=O)C(O)c1ccccc1 (stereo not drawn),0.3%
6,c1ccc2nc(NCc3ccncc3)ccc2c1,-8.8%
7,O=[N+]([O-])c1ccc(/C(=N\Nc2ccccc2)c2cc(O)ccc2O)cc1,6.6%
8,Cc1ccc(OCC(=O)Nc2cc3nn(-c4ccc(C)cc4)nc3cc2C)cc1,1.3%
9,CCOC(=O)c1ccc(N2C(=O)C3C(c4ccc(C)cc4)OC4(C(=O)c5ccccc5C4=O)C3C2=O)cc1 (stereo not drawn),-7.3%
10,NC(=O)c1ccc(NC(=O)COc2ccccc2Cl)cc1,-2%
11,CCOC(=O)c1cccc(N2C(=O)C=CC2=O)c1,9.4%
12,CCOC(=O)c1c(NC(=O)c2ccc(Cl)cc2)sc(C(=O)Nc2cc(C(F)(F)F)ccc2Cl)c1C,7.7%
13,O=c1cc(-c2ccccc2)[nH]n1-c1ccc([N+](=O)[O-])cc1,-4.4%
14,Cc1ccc(N=Cc2c[nH]c3ccccc23)cc1[N+](=O)[O-],-3.4%
15,Cc1ccccc1NC(=O)c1cccnc1,-3.6%
16,Cc1cccc(OCC(=O)NCC(=O)n2nc(C)cc2C)c1,-0.8%
17,COc1cccc(NC(=O)CN(c2cccc([N+](=O)[O-])c2)S(=O)(=O)c2ccccc2)c1,-7.1%
18,Cc1cc(/C=C2\C(=O)NC(=O)N(c3ccc(Br)cc3)C2=O)c(C)n1-c1cccnc1,40.6%
19,Cc1ccc2nc(SCC(=O)Nc3ccc(Br)cc3)[nH]c2c1,-12%
20,CCSc1nnc2c(n1)OC(c1ccc(OCc3ccccc3)cc1)Nc1ccccc1-2 (stereo not drawn),120%
21,Cc1ccc(/C(O)=C2\C(=O)C(=O)N(CCCC(=O)O)C2c2ccc(Br)cc2)cc1 (stereo not drawn),3%
22,CCOc1cc(/C=c2\sc3nc4ccccc4n3c2=O)cc(Br)c1OCc1ccc(F)cc1,15.9%
23,COc1c(Cl)cc(C(=O)Nc2cccnc2)cc1Cl,-2.7%
24,NS(=O)(=O)c1ccc(N/C=C/C(=O)c2ccc(Cl)c(Cl)c2)cc1,4.8%
25,CC(=O)CC(=O)Nc1ccc2[nH]c(=O)[nH]c2c1,-2.2%
26,N#C/C(=C\c1ccc(-c2ccc(Cl)c(Cl)c2)o1)C(N)=O,7.8%
27,Cc1cc2ncn(C(=O)c3ccco3)c2cc1C,11.9%

row,Structure (SMILES),displacement
1,COc1ccc(CCNC(=O)/C(=C/c2ccc(C(C)C)cc2)NC(=O)c2ccccc2)cc1OC,8.8%
2,COc1ccc(C2CC(=O)C3=C(C2)Nc2ccccc2NC3c2ccc(C)cc2)cc1 (stereo not drawn),-6.6%
3,CCOc1ccc(/C=N/NC(=O)c2cc(-c3ccccc3)n[nH]2)cc1,-6%
4,Nc1cc(S(=O)(=O)Nc2ccccc2)ccc1Cl,14.2%
5,Cc1ccc(NC(=O)/C(=C/c2ccccc2Cl)NC(=O)c2ccc(C)cc2)cc1,-5%
6,COc1ccc(CC(=O)O/N=C(\N)Cc2ccc(Cl)cc2Cl)cc1OC,10.1%
7,COc1ccccc1/C=N\N1CCN(c2ccccc2OC)CC1,-4.6%
8,O=C(Nc1ccccc1-c1nc2ccccc2[nH]1)c1ccc(S(=O)(=O)N2CCCCC2)cc1,-6.6%
9,Cc1ccc(N2C(=O)/C(=C/C=C/c3ccccc3)C(=O)NC2=S)cc1,8.5%
10,Cc1sc(NC(=O)C2CC=CCC2C(=O)O)c(C#N)c1C (stereo not drawn),3.3%
11,COC(=O)c1c(-c2ccccc2)csc1NC(=O)C1CCCCC1C(=O)O (stereo not drawn),-9.1%
12,CC(=O)c1cccc(NC(=O)c2c(Cl)cccc2Cl)c1,1.4%
13,Cc1cc(C)c([N+](=O)[O-])cc1-c1ccc(C=C2C(=O)c3ccccc3C2=O)o1,-3.4%
14,CCOc1ccc(S(=O)(=O)N(CC(=O)N2CCCC2)c2ccc(C)cc2)cc1,-10.5%
15,O=C(/C=C/c1ccc(/C=C/C(=O)c2cccc(N3C(=O)C=CC3=O)c2)cc1)c1cccc(N2C(=O)C=CC2=O)c1,5.6%
16,CCCOc1cccc(C(=O)Nc2cccc(C(=O)Nc3nccs3)c2)c1,-6.4%
17,COc1ccc(NC(=O)c2ccc(Br)o2)cc1OC,-12.2%
18,CCOc1ccc(C2C(C(=O)OCCOC)=C(C)NC3=C2C(=O)CC(C)(C)C3)cc1 (stereo not drawn),-3%
19,Cc1ccc(C(=O)Nc2cc(Cl)ccc2C)cc1C,5.3%
20,CC(C)CN(CC(C)C)C(=O)/C=C/c1ccc(Cl)cc1,10.4%
21,COc1ccccc1N1CCN(/N=C/c2ccccc2C)CC1,11.2%
22,Cc1cccc(/C=N/N2CCN(c3ccccc3)CC2)c1,16.7%
23,O=C(c1ccc([N+](=O)[O-])cc1Cl)N1CCN(c2ccc(F)cc2)CC1,-5.4%
24,CN1C(=O)NC(=O)/C(=C/c2ccc(-c3ccc([N+](=O)[O-])cc3Cl)o2)C1=O,93.6%
25,O=C1N/C(=N\N=C\c2ccccc2O)SC1Cc1ccc(Cl)cc1 (stereo not drawn),8.7%
26,CC1CCN(C(=O)CN(c2cccc([N+](=O)[O-])c2)S(=O)(=O)c2ccccc2)CC1,3.3%
